Reference: the supplement of paper PMC3334620
Over roughly 33,000 sequences, “E-score (-0.5 to 0.5)” has its median near -0.035; the highest 2% begin near 0.35. The list shows a part of the results.

target: T1, Pdr3 (UniProt P33200); test: PBM E-score (8-mer binding enrichment) (E-score (-0.5 to 0.5)); higher = stronger / more preferred TF binding; most listed sequences are background and not binding sites; details: protein concentration: 200 nM; construct: GST-full length
T1 sequence: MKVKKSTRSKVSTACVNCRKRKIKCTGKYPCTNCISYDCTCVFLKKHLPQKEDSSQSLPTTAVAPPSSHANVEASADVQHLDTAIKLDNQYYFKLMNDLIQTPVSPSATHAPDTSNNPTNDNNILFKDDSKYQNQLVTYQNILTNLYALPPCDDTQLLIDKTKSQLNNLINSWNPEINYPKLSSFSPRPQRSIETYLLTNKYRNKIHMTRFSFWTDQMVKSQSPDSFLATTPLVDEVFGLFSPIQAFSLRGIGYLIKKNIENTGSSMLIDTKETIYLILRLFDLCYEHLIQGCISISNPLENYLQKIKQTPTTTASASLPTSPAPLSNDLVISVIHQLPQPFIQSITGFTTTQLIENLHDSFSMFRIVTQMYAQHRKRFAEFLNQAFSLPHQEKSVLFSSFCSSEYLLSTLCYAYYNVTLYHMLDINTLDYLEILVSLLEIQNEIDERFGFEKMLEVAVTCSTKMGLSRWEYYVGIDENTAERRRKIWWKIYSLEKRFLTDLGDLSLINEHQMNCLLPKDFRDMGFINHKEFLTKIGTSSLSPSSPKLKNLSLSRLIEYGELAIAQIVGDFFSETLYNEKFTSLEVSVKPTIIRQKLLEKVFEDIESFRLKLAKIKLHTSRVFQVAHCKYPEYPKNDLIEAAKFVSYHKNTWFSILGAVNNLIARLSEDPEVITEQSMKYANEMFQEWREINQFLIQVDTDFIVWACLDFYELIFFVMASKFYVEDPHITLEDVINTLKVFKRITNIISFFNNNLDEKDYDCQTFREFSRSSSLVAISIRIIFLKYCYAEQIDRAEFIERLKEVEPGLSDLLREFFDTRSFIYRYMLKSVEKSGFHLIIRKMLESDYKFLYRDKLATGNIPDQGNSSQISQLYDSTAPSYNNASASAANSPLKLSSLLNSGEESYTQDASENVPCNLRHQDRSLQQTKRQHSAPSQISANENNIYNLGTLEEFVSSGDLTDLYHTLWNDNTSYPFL
Outline: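 GST-tagged yeast TFs (full-length or DNA-binding domain) were made by PURExpress in vitro transcription/translation and applied at about 100-200 nM to universal all-10-mer Agilent arrays. The arrays were made double-stranded by primer extension, on fresh or once-stripped slides. Bound protein was detected with fluorescent anti-GST, and scans were normalised with masliner. Each ungapped eight-base word, pooled with its reverse complement, received an E-score (modified Wilcoxon-Mann-Whitney statistic) from the Universal PBM Analysis Suite.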

Point of comparison: AACGCTGA, “PBM E-score” value -0.139. Against it:
- ACCAGGGC — higher, -0.0386
- GATAAAAC — higher, 0.201
- TACCCGGA — higher, 0.381
- CCGAGTCA — higher, 0.166
- CCAATGGC — higher, -0.0721
- AGTCAGCC — higher, -0.063
- AATACCAT — higher, 0.0209
- GGAAGACA — higher, 0.0457
- TAGTCATA — lower, -0.247
- AAAAGGTA — higher, -0.0334
- ACTCCGAA — higher, 0.238
- CATGTAAA — lower, -0.143
- ACTATTAG — higher, -0.0165
- ATAAAGAA — higher, -0.047
- CTACCCCA — higher, -0.0646
- CTGATCTA — higher, 0.0483
- AGCAGCGG — higher, 0.0503
- ACCGCTCT — higher, -0.0701
- CATGAATC — higher, -0.0484
- AATCGTAA — higher, -0.0201
- CCAGCATC — higher, -0.0058
- GAGACCGC — higher, -0.0255
- CGCTTGTC — higher, 0.198
- GTGCTGTA — higher, -0.122
- GAGGCTCC — higher, 0.047
- TAAAGTTA — higher, -0.0144
- CCGCGACC — higher, 0.215
- AAATTGCC — higher, 0.159
- ATGGCTCC — higher, 0.0449
- CCCGGTCG — higher, 0.196
- AGCTAGAA — lower, -0.195
- AGCTGAGA — higher, -0.105
- CAGCAACG — higher, 0.201
- GGACGACC — higher, -0.0865
- AAACGTTC — higher, -0.101
- AATCCTAG — higher, -0.108
- GCCTTGAA — lower, -0.311
- GCGGTTTA — higher, 0.0976
- ATGCGATA — higher, -0.121
- ATGCGAGG — higher, 0.0336
- CCCGCAGA — higher, 0.235
- AAAACCCC — higher, 0.103
- TCTACACA — lower, -0.161
- TCCCCCCA — lower, -0.281
- CAAATGAA — higher, 0.00025
- AGCCACGC — higher, -0.112
- AAGTTCCA — higher, 0.00015
- ATAGTTTG — higher, 0.0183
- CAAGGGCC — lower, -0.148
- AGTGCTAG — higher, -0.0699
- GTGAACAA — higher, 0.0506
- AATCTGTC — higher, 0.0502
- ACGATACA — lower, -0.177
- ACTACCCC — higher, -0.129
- AAACAGGG — higher, -0.108
- ACCCCGAA — higher, 0.283
- AAGTCCTA — higher, -0.0927
- ACGCTTGC — higher, -0.0328
- AAAGACGC — higher, 0.00677
- AACTAGCT — higher, -0.109
- ATGCGTTC — higher, 0.086
- ATCGGAGA — higher, 0.25
- GAACGGCC — higher, 0.202
- CTATACAC — lower, -0.187
- AGAGGACG — higher, -0.0552
- CTACTTGC — higher, -0.00111
- CCTGCCAA — lower, -0.144
- TATCTCCA — higher, 0.0175
- AGCAAAAG — lower, -0.336
- CCTAGAAA — higher, -0.0522
- CTCGATAC — higher, 0.0192
- AAGTGTAT — lower, -0.246
- CGATTGCC — higher, -0.0543
- CGCCGCAA — higher, 0.269
- AGTGCACG — higher, -0.0387
- AGGTTTTA — higher, -0.0633
- CAATATGC — higher, -0.0963
- ATCGCGTC — higher, 0.0876
- ACTTGACT — lower, -0.254
- CGCTCCTA — higher, -0.0844
- TGTAAAAA — lower, -0.165
- CAGGATGA — lower, -0.171
- CCTATCAA — higher, -0.0626
- CAGCGGCG — higher, 0.154
- TACTTAAA — lower, -0.239
- CGCAGGAA — higher, 0.033
- AAAAGCTC — higher, 0.0158
- CGTGTAAA — lower, -0.148
- CCTTGGTC — higher, -0.123
- CTATAGAG — lower, -0.175
- CGCCACGC — higher, 0.00141
- AACCAGGA — higher, -0.0441
- TAGCAAAA — the same, -0.139
- GTGACCAC — higher, -0.134
- CCTAGACC — lower, -0.184
- CTACCATA — higher, -0.0761
- ACCAGTTG — lower, -0.171
- TCCCTGAA — higher, -0.0452
- CTAGTCTA — lower, -0.281
- AAATTCGT — higher, 0.226
- AACTCTAT — higher, -0.00718
- CCCGGTAA — higher, 0.202
- ACTACTAA — higher, -0.0208
- AATCTTTA — higher, -0.131
- GATCCTTA — higher, -0.133
- AGAAGGCG — lower, -0.15
- CTGGATCC — higher, 0.285
- GGGTGGGA — higher, 0.175
- AATACGGT — higher, -0.0727
- GAACTCTC — higher, -0.0534
- CCCGTGGA — higher, 0.395
- CCCCCCAA — lower, -0.198
- GAGGAACA — higher, 0.147
- CCGCCGTA — higher, 0.194
- CTGTGACC — higher, -0.0932
- GCGCCTAC — higher, 0.0207
- ACACGCAT — lower, -0.168
- CACCAAAC — higher, -0.02
- ATTACTTG — higher, -0.0328
- ATGCGCTG — higher, -0.0256
- ACTAGCCA — lower, -0.197
- AAGACTCC — lower, -0.146
- CAGCTTTA — higher, -0.00836
- AGCGCCTA — higher, 0.0254
- CGGGTGTC — higher, 0.161
- GGGTCGGA — higher, 0.227
- ACTGGTGG — lower, -0.223
- GAACCTCA — higher, -0.0542
- GTGGACAA — higher, 0.183
- CGAGTGTC — higher, 0.0372
- AAGGGTCC — higher, 0.205
- CTATTACA — higher, 0.0326
- TAAGCCCA — higher, -0.113
- AACGTCCC — higher, -0.0817
- CGATCGCC — higher, 0.152
- CCAGCTAC — higher, -0.0463
- GAAGTACA — higher, -0.0942
- AAAGGAGC — higher, -0.0204
- CACGCTAC — lower, -0.144
- ACTCGGTG — higher, -0.0495
- ATGTAACC — higher, 0.0796
- CAGACAAC — higher, 0.083
- ACACGGAG — higher, 0.284
- CTCTTTCC — higher, 0.141
- CCTACTGA — lower, -0.159
- GCCGGATA — higher, 0.368
- GGGTTTCA — higher, 0.0864
- GGTCCCGA — higher, 0.287
- CGCGCTAC — higher, 0.134
- ATAGCCTC — higher, 0.0247
- AAACTTGG — higher, -0.0784
- TGTCAACA — higher, -0.0926
- CGCACAAA — higher, 0.0204
- ACGAACCT — lower, -0.187
- ATTCGGAA — higher, 0.415
- CTAGTATA — higher, -0.0649
- AGGGTACT — lower, -0.16
- ATCCAGCG — higher, 0.174
- ACTCAGAG — higher, -0.128
- AGACTCAT — higher, -0.0927
- TAGACATA — higher, -0.0402
- AATGATGT — higher, 0.054
- GAAGCCTC — higher, -0.115
- TGAGTCCA — lower, -0.18
- AACTACAA — higher, 0.115
- AGTTCCGG — higher, 0.464
- GCCTTACC — lower, -0.192
- GGTGCGGA — higher, 0.275
- GCACCGTA — higher, 0.067
- GGTTAGGA — lower, -0.338
- AACCATAT — higher, 0.0335
